Data taken from PubChem BioAssay AID938 (National Center for Advancing Translational Sciences (NCATS), 2007).
Among all 73,000 compounds or so, about 1,800 (2.5%) were called active. This list was built around the results that the source calls inconclusive (neither active nor inactive); the mix of calls is not that of the screen. Calls follow the shape of the dose curve; as a rule, active = well fitted activation curve with a large enough effect; inconclusive = small, poorly fitted or top-dose-only effect; inactive = no such curve, though single readings can be large or run the other way. No potency is given beside an inconclusive call; the fits are too rough.

Assay: qHTS Assay for Agonists of the Thyroid Stimulating Hormone Receptor: Activators of Intracellular cAMP Concentrations in Parental HEK 293; also: nearly all actives have a fitted effect of over 55% in size; as to activation: % of control where 0% means no effect
Settings: parental HEK293 CNG cAMP sensor, membrane potential fluorescence; activation: at 57.1 µM (top of the series) unless noted
In short: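 Counterscreen for endogenous-receptor signalling: CNG-channel HEK 293 cells report cAMP rise by membrane depolarization. After 60 min dye equilibration with 100 uM RO 20-1724, compounds incubated 30 min before bottom-read fluorescence at 590 nm.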
Potency is read from the fitted curve at half-maximal effect; tags tell the direction and shape of the fitted curve.

**Q.** Which Potency does the source give for COc1cccc(-c2nc(=S)c3c(n2Cc2ccco2)CCCC3)c1 here?
**A.** Its Potency is inconclusive [activator, partial curve].

**Q.** For CC(=O)[C@@]1(O)Cc2c(O)c3c(c(O)c2[C@H](O[C@H]2C[C@H](N)[C@H](O)[C@H](C)O2)C1)C(=O)c1ccccc1C3=O, which Potency is on record?
**A.** The Potency was inconclusive [activator, single point].

**Q.** For O=c1c(-c2cccc(F)c2)nc2cncnc2n1Cc1ccccc1Cl, which “activation” value is on record?
**A.** Its value is inactive: -16%.

**Q.** For O=C1CCC[C@H]1C(=O)Nc1ccc2ccccc2c1, which activation is on record?
**A.** The activation was inactive: 3.68% [at 11.4 µM].

**Q.** For CC1(C)Cc2c(sc3nc(-c4cccs4)n(N)c(=O)c23)CO1, which “activation” value is on record?
**A.** Its value is inactive: 27.8%.

**Q.** Which Potency does the source give for CCn1c(C)nc2cc(-c3nnc(-c4c(-c5ccccc5)noc4C)o3)ccc21 here?
**A.** The Potency was active: 20 µM.

**Q.** Which “activation” value does the source give for CCC[C@@H]1C[C@@]1(CCC)C(NC(=O)c1ccc(-c2ccccc2)cc1)c1cccc(Cl)c1 (some centres undefined) here?
**A.** The value was inactive: -2.94%.

**Q.** With CCc1ccccc1NC(=O)CN1C(=O)C2CCCN2c2ncc(Cl)cc21 (centres undefined) as the molecule, how does the Potency read?
**A.** Its Potency is inconclusive [activator, full curve].

**Q.** For CCc1c2c(nc3cccc(SC)c13)COC2, which Potency is on record?
**A.** The Potency was inconclusive [activator, single point].

**Q.** For Oc1ccccc1-c1nc(N2CCN(Cc3ccccc3)CC2)c2ccccc2n1, which Potency is on record?
**A.** Its Potency is inconclusive [activator, single point].

**Q.** Which Potency does the source give for COc1ccccc1NC(=O)N(CCN(C)C)Cc1cc2cc(C)ccc2[nH]c1=O here?
**A.** Its Potency is inconclusive [activator, partial curve, poor fit].

**Q.** Which Potency does the source give for COc1ccc(CNc2nc(-c3ccoc3)nc3ccccc23)c(OC)c1 here?
**A.** Its Potency is inconclusive [activator, partial curve].

**Q.** For Cc1ccccc1N(CC(=O)NCc1ccc2c(c1)OCO2)C(=O)CCC(=O)Nc1ccccn1, which Potency is on record?
**A.** Its Potency is inconclusive [activator, single point].

**Q.** For COc1ccc2c(c1)C(C)=CC(C)(C)N2C(=O)CNCc1ccc2c(c1)OCO2, which Potency is on record?
**A.** Its Potency is active: 25.1 µM.

**Q.** Which Potency does the source give for CCOC(=O)N1CCC(NC(=O)CSCc2nc(-c3cccc(OC)c3)oc2C)CC1 here?
**A.** Its Potency is inconclusive [activator, single point].

**Q.** For COc1ccccc1N1CCN(c2nc(C)nc3c2oc2ccccc23)CC1, which Potency is on record?
**A.** The Potency was active: 25.1 µM.

**Q.** For O=C(OCc1nc2ccccc2s1)c1ccc(Br)s1, which Potency is on record?
**A.** Its Potency is inconclusive [activator, partial curve].

**Q.** For Nc1cc(C2CCCC2)nn1-c1ccccc1, which “activation” value is on record?
**A.** The value was inactive: 1.26%.

**Q.** With CC(C)OCCCNC(=O)CN1CCN(Cc2ccccc2Cl)C1=O as the molecule, how does the Potency read?
**A.** Its Potency is inconclusive [activator, single point].

**Q.** Which Potency does the source give for CN(C)c1nc(N(C)C)nc(N(C)C)n1 here?
**A.** The Potency was “inactive”.

**Q.** For COc1ccccc1-c1cncnc1NCc1cccs1, which Potency is on record?
**A.** Its Potency is inconclusive [activator, partial curve].

**Q.** With Cc1cc(N2CCOCC2)nc2ccc(NC(=O)CCC(=O)N3CCC(C)CC3)cc12 as the molecule, how does the “activation” value read?
**A.** Its value is inactive: -2.17%.

**Q.** For O=c1cc(CN2CCN(Cc3ccccc3)CC2)c2cc(Cl)ccc2o1, which Potency is on record?
**A.** The Potency was inconclusive [activator, single point].

**Q.** With O=C(NC1CCCCC1)N1CCC(c2nc(-c3ccc(S(=O)(=O)N4CCCC4)cc3)no2)CC1 as the molecule, how does the Potency read?
**A.** Its Potency is inconclusive [activator, full curve].

**Q.** Which Potency does the source give for CCOCCCn1c(C)nc2c(c1=O)c1nc3ccccc3nc1n2-c1ccc(C)cc1 here?
**A.** Its Potency is inconclusive [activator, partial curve].

**Q.** With c1cc2c3c(cccc3c1)C(N1CCCCC1)=N2 as the molecule, how does the Potency read?
**A.** The Potency was inconclusive [activator, single point].

**Q.** Which “activation” value does the source give for c1ccc2c(c1)nc(Nc1ccc3c(c1)OCO3)c1nnnn12 here?
**A.** The value was inactive: 14.5%.

**Q.** For COc1ccc(C2C(C(=O)N3CC(C)CC(C)C3)c3ccccc3C(=O)N2C)cc1 (centres undefined), which Potency is on record?
**A.** The Potency was active: 15.8 µM.

**Q.** For O=C(NCCc1ccco1)c1nn(Cc2ccccc2)c(=O)c2ccccc12, which Potency is on record?
**A.** Its Potency is inconclusive [activator, partial curve].

**Q.** With COc1ccc(S(=O)(=O)NCCSc2ccccc2)cc1OC as the molecule, how does the Potency read?
**A.** Its Potency is inconclusive [activator, single point].

**Q.** For C[C@H](NC(=O)OC(C)(C)C)c1nnc(SCC(=O)c2ccc(Cl)cc2)o1, which Potency is on record?
**A.** The Potency was inconclusive [activator, single point].

**Q.** With CC1=C(C(=O)NC(C)c2ccc3c(c2)OCCO3)C2(CCC(C)CC2)OC1=O (centres undefined) as the molecule, how does the Potency read?
**A.** The Potency was inconclusive [activator, single point].

**Q.** With O=C(O)CSc1ccc([N+](=O)[O-])cc1[N+](=O)[O-] as the molecule, how does the activation read?
**A.** Its activation is inactive: 11% [at 11.4 µM].

**Q.** For CCn1c(Sc2ccc(N)cc2Cl)nc2ccccc21, which Potency is on record?
**A.** Its Potency is inconclusive [activator, partial curve].

**Q.** For Cn1c(CNc2nc3ccccc3n2CCN2CCCCC2)nc2ccccc21, which Potency is on record?
**A.** Its Potency is inconclusive [activator, partial curve].

**Q.** For COCCn1c(=O)c(-c2cc(F)cc(F)c2)nc2cnc(N3CCN(C)CC3)nc21, which “activation” value is on record?
**A.** Its value is inactive: -11.5%.

**Q.** With C=C(C)COc1ccc(-c2nc(N)ncc2-c2ccc(OC)cc2)c(O)c1 as the molecule, how does the Potency read?
**A.** The Potency was inconclusive [activator, single point].

**Q.** For O=C(O)c1cc(-c2ccc3cc4c(cc3c2)OCO4)nc2ccccc12, which activation is on record?
**A.** The activation was inactive: 1.65% [at 11.4 µM].

**Q.** Which Potency does the source give for CC1CCCN(c2nc3c(c(=O)n(C)c(=O)n3C)n2CCSc2nc3ccccc3o2)C1 (centres undefined) here?
**A.** The Potency was inconclusive [activator, single point].

**Q.** Which Potency does the source give for CCCCn1c(=O)n(CC(=O)Nc2c(CC)cccc2CC)c(=O)c2c1nc(CO)n2CCC here?
**A.** The Potency was inconclusive [activator, single point].

**Q.** With COc1ccccc1N(CC(=O)Nc1c(C)cccc1C)S(C)(=O)=O as the molecule, how does the activation read?
**A.** Its activation is inactive: 11.4% [at 11.4 µM].

**Q.** For CCn1c(CNC(=O)c2cccs2)nnc1SCC(=O)NCCc1ccccc1, which Potency is on record?
**A.** The Potency was inconclusive [activator, single point].

**Q.** For CCOC(=O)c1c(NC(=O)CSc2nnnn2C)sc(C)c1C, which Potency is on record?
**A.** The Potency was inconclusive [activator, single point].

**Q.** Which Potency does the source give for CCN(CC)c1nc(N)c2c(N)nc3c(c2c1C#N)CC(c1ccccc1)O3 (centres undefined) here?
**A.** The Potency was inconclusive [activator, single point].
